The campaign covered roughly 48,000 compounds. About 120 (0.25%) were called active. Not shown: some 4% with an inconclusive outcome. The call rests on the fitted dose curve; in most records, active means well fitted activation curve with a large enough effect; inconclusive means small, poorly fitted or top-dose-only effect, or another doubt; inactive means no such curve, though single readings can be large or run the other way. The list shows a part of the results.
Assay: Primary qHTS for Identification of Small Molecule Activators of Huntingtin-Antisense Promoter Activity; further: nearly all actives have a fitted effect of over 55% in size
Conditions: HEK293 HTT-AS promoter firefly luciferase reporter, 24 h; series mostly up to 57.5 µM; activity change, positive = activation: at the top concentration
Procedure, shortened: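 Quantitative HTS used concentration series of up to 57.5 uM final on HEK293 luciferase reporter cells, 24 h at 37 degrees C. Readout was Dual-Glo firefly luminescence.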

Activity change, positive = activation, inactive:
COc1ccc(NC(=O)N(CCC(C)C)C(C)c2cccs2)c(OC)c1 (stereo not drawn) -21.5%, O=C(COc1ccccc1)NCc1ccc2c(c1)CCN2C(=O)c1ccc(Cl)cc1 -1.1%, Cc1ccc(C2CCN(C(=O)c3cnn(-c4cccc(Cl)c4)c3C3CCN(C(=O)OC(C)(C)C)CC3)C2)cc1 (stereo not drawn) -43%, Cc1cc(=O)[nH]c2nnc(SCC(=O)Nc3ccc(OC(F)(F)F)cc3)n12 0.493%, COc1ccc(OC)c(NC(=O)c2cc(-c3ccc(Cl)s3)nc3ccccc23)c1 -4.97%, Cc1c(Cl)cccc1NC(=O)CSc1ncc2c(n1)-c1ccccc1N(C)S2(=O)=O -14.8%, COC(=O)c1c(NC(=O)c2cc3ccccc3c(=O)o2)sc2c1CCCC2 5.61%, Cc1cccc(C)c1OCC(=O)Nc1ncn[nH]1 9.41% [at 11.5 µM, percent change from vehicle, -100% = no light], CCN(CC)CCNC(=O)c1c(C)oc2ncnc(N3CCOCC3)c12 -0.402%, CCOc1ccc(CCNC(=O)c2cnc3sc(N(CC)CC)nn3c2=O)cc1OCC -17.1%, Cc1cc(C)c(NC(=O)Cn2cc(S(=O)(=O)Cc3ccccc3F)c3ccccc32)c(C)c1 -25.3%, COc1ccccc1NC(=O)N(Cc1nnc2n1CCCCC2)c1ccc(F)cc1 -10.4%, COc1ccc(CCNC(=O)c2ccc(Nc3nc4ccccc4n4nnnc34)cc2)cc1OC -30.9%, CC(=O)c1cccc(NC(=O)C(C)n2c(=O)cc(C)c3c(C)nn(-c4ccccc4)c32)c1 (stereo not drawn) -15.4%, COc1ccc(OC)c(CNS(=O)(=O)c2ccc3c(c2)CCCN3C(C)=O)c1 -22%, O=C(NCCc1ccccc1)c1ccc2c(c1)N(Cc1ccc(F)cc1)C(=O)c1ccccc1S2(=O)=O -16.6%, Cc1cccc(N(CC(O)Cn2c3ccccc3c3ccccc32)S(=O)(=O)c2ccc(F)cc2)c1 (stereo not drawn) -57%, CC(C)c1ccc(NC(=O)c2cc3sc(Cl)cc3n2C)cc1 5.24%, Cc1ccccc1S(=O)Cc1ccc(C(=O)N2CCN(c3cccc(C)c3C)CC2)o1 (stereo not drawn) -47%, Cc1ccc(-c2c(CN3CCN(c4cccc(C)c4)C(C)C3)csc2C)cc1 (stereo not drawn) -19.8%, Cc1ccc2onc(CC(=O)N3CCN(c4ccc(F)cc4)CC3)c2c1 -12.4%, CC(C)CC(=O)N1c2nc(C(C)C)nn2C2(CCCCC2)[C@@H]2CCCC[C@@H]21 -10.3%, CCOC(=O)c1[nH]c2c(c1Cc1ccccc1C)C(=O)CC(c1cc(OC)ccc1OC)C2 (stereo not drawn) -30.2%, CN1C(=O)Cc2cc(S(=O)(=O)N3CCN(c4ccc(Cl)cc4)CC3)ccc21 -20.5%, CCOc1ccc(OCC)c(NC(=O)C2CCN(S(=O)(=O)c3c(C)noc3/C=C/c3ccccc3F)CC2)c1 17.9%, O=C(c1ccc2c(c1)OCCO2)N(Cc1cccnc1)c1nc2c(Cl)cccc2s1 -36.9%, COc1cccc(Cn2c(CNS(=O)(=O)c3ccc(F)c(Cl)c3)nc3cccnc32)c1 -19.7%, CCc1nn2c(=O)cc(COc3ccc(/C=C(\C#N)C(=O)Nc4ccc(F)cc4)cc3OC)nc2s1 0.157%, CC(C)COc1ccc(C(=O)Nc2cc3nn(-c4ccccc4)nc3cc2Cl)cc1 12.2%, O=S(=O)(NCC(c1cccs1)S(=O)(=O)c1ccccc1)c1ccc(F)cc1 (stereo not drawn) -16.5%, CCn1c2ccccc2c2nnc(SCC(=O)Nc3ccccc3OC)nc21 -14%, CCOC(=O)c1ccc(NC(=O)C2CCN(S(=O)(=O)c3ccc4c(c3)CCCC(=O)N4)CC2)cc1 -35.3%, CCOc1ccccc1CNC(=O)c1cc(-c2ccc(Cl)s2)nc2ccccc12 -15.8%, Cc1ccccc1-c1nn2c(=O)cc(CN3CCN(C(=O)/C=C/c4ccccc4)CC3)nc2s1 -2.95%, CCc1ccc(NC(=O)Cn2c(=O)n(CCC(=O)N3CCc4ccccc4C3)c(=O)c3ccccc32)cc1 -10.8%, Cc1cc(C)cc(NC(=O)N2CCC3(CC2)Oc2ccccc2C(=O)N3Cc2ccccc2F)c1 -17.7%, CC1CCc2c(sc3nc(-c4cc5cc(Br)ccc5oc4=O)[nH]c(=O)c23)C1 (stereo not drawn) -1.59%, O=C(CCS(=O)(=O)c1cccc2nonc12)Nc1c(F)cccc1F -2.51%, CCOC(=O)c1ccc(CN(Cc2ccc(F)cc2)S(=O)(=O)c2ccc(F)c(C(=O)Nc3ccc(Cl)cc3F)c2)cc1 -8.78%, O=S(=O)(Nc1ccc(Br)cc1F)c1ccc2nc(-c3ccccc3)[nH]c2c1 -32.3%, COc1cccc(N2CCN(C(=O)c3cccc(-n4c(C)nc5cccnc54)c3)CC2)c1 -26.9%, COc1ccc(CCn2c(=O)c3cccnc3n(CC(=O)Nc3ccc(C)c(F)c3)c2=O)cc1OC 4.79%, C=Cc1ccc(Cn2c(C(=O)O)c(CNC3CCCCC3)c3ccc(C)cc32)cc1 -7.51%, COc1ccc(-c2nnc(SCC(=O)Nc3cccc(C(F)(F)F)c3)nc2-c2ccc(OC)cc2)cc1 -7.75%, O=C1CC(c2nnc(Cc3ccc(F)cc3)o2)CN1c1ccccc1 (stereo not drawn) -14%, Cc1cccc(NC(=O)CSc2cn(CC(=O)N3CCC(C)CC3)c3ccccc23)c1C 1.29%, COc1ccccc1CNC(=O)c1cc(S(=O)(=O)N2CCCCCC2)cn1C -18.8%, Fc1ccccc1-n1ncc2c1ncn1nc(COc3ccc(Cl)cc3)nc21 -2.61%, COc1ccc(OC)c(NC(=O)c2ccc3nc(C(C)C)oc3c2)c1 2.69%, Cc1cccc(N2CCN(S(=O)(=O)c3nnc(NC(=O)c4ccc(Cl)cc4)s3)CC2)c1 -12.9%, CCc1cccc(NC(=O)c2cc(S(=O)(=O)N3CCCCCC3)cn2C)c1 -22.1%, COc1ccccc1N1CCN(C(=O)c2cc3c(s2)-c2ccccc2OC3)CC1 -15.5%, Cc1ccccc1CN1CCC(CNC(=O)c2cc3ccc4cccnc4c3[nH]2)CC1 -18.9%, CC(C)(C)C(=O)NC1CC(=O)N(c2ccc3c(c2)OCCO3)C1 (stereo not drawn) 0.3%, COc1ccccc1NC(=O)c1sc2nc(C)c(C(=O)Nc3ccc(Cl)cc3)c(-c3ccc(Br)cc3)c2c1N -29.4%, CCc1ccc2oc(C(=O)Nc3nc(-c4ccc(F)cc4)ns3)c(C)c2c1 1.71%, Cc1cc2c(n1-c1ccc(C(=O)NCCc3ccc(Cl)cc3)cc1)CCC(C)C2 (stereo not drawn) 6.32%, COc1ccc(-c2cc(C(F)(F)F)n3nc(C(=O)OC(C)C)cc3n2)cc1 -1.1%

Source: PubChem BioAssay AID1508624 (National Center for Advancing Translational Sciences (NCATS), 2021)
